Data published in the supplement of paper PMC4967469.
The IC50 comes from the fitted curve, where viability falls to half of the control; fits outside the tested doses are given as limits. For AUC the same curve is integrated over the 256-fold range of doses and scaled to a fraction; the more sensitive the line, the further below 1. For part of these data: A top dose marked as inferred comes from the curve model; the source does not state it. For part of these data: An entry number marks a drug with two screens in the source, which often give different values.

Legend:
Test in all cases: Viability of human cancer cell lines after 72 h of drug (GDSC screen)
Zibotentan = compound: COc1nc(C)cnc1NS(=O)(=O)c1cccnc1-c1ccc(-c2nnco2)cc1 [Zibotentan]; conditions: top dose 20 µM; top dose inferred
Method: (§1)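 Human cancer cell lines in 384-well plates, medium with 10% serum, drug for 72 h over a 256-fold dose range (nine 2-fold or five 4-fold steps up to the top dose). Adherent lines were fixed and stained with the nucleic acid dye Syto60, suspension lines read with resazurin; signal relative to control wells, capped at 0 and 100%. One two-parameter sigmoid per drug and line, fitted in a mixed model over all curves with the slope shared within a line.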

Cytarabine = compound: Nc1ccn([C@@H]2O[C@H](CO)[C@@H](O)[C@@H]2O)c(=O)n1 [Cytarabine]; conditions: top dose 2 µM
Method: as §1

CHIR-99021 = compound: Cc1cnc(-c2cnc(NCCNc3ccc(C#N)cn3)nc2-c2ccc(Cl)cc2Cl)[nH]1 [CHIR-99021]
Method: as §1

ABT-869 = compound: Cc1ccc(F)c(NC(=O)Nc2ccc(-c3cccc4[nH]nc(N)c34)cc2)c1 [ABT-869]; conditions: top dose 1.024 µM; top dose inferred
Method: as §1

QL-X-138 = compound: C=CC(=O)Nc1cc(-n2c(=O)ccc3cnc4ccc(-c5cn[nH]c5)cc4c32)ccc1C [QL-X-138]; conditions: top dose 10.24 µM; top dose inferred
Method: as §1

CP466722 = compound: COc1cc2ncnc(-n3nc(-c4ccccn4)nc3N)c2cc1OC [CP466722]; conditions: top dose 16 µM; top dose inferred
Method: as §1

GSK269962A = compound: CCn1c(-c2nonc2N)nc2cnc(Oc3cccc(NC(=O)c4ccc(OCCN5CCOCC5)cc4)c3)cc21 [GSK269962A]; conditions: top dose inferred
Method: as §1

ABT-888 = compound: C[C@]1(c2nc3c(C(N)=O)cccc3[nH]2)CCCN1 [ABT-888]; conditions: top dose 5 µM; top dose inferred
Method: as §1

CMK = compound: Cc1ccc(-c2c(C(=O)CCl)n(CCCO)c3ncnc(N)c23)cc1 [CMK]; conditions: top dose 4 µM; top dose inferred
Method: as §1

Thapsigargin = compound: C/C=C(/C)C(=O)O[C@H]1C(C)=C2[C@H]([C@@H]1OC(=O)CCCCCCC)[C@@](C)(OC(C)=O)C[C@H](OC(=O)CCC)[C@@]1(O)[C@H]2OC(=O)[C@@]1(C)O [Thapsigargin]; conditions: top dose 0.512 µM; top dose inferred
Method: as §1

KU-55933 = compound: O=c1cc(-c2cccc3c2Sc2ccccc2S3)oc(N2CCOCC2)c1 [KU-55933]; conditions: top dose 10 µM
Method: as §1

MPS-1-IN-1 = compound: COc1cc(N2CCC(O)CC2)ccc1Nc1cc(Nc2ccccc2S(=O)(=O)C(C)C)c2cc[nH]c2n1 [MPS-1-IN-1]; conditions: top dose 20 µM; top dose inferred
Method: as §1

(5Z)-7-Oxozeaenol = compound: COc1cc(O)c2c(c1)/C=C/C[C@H](O)[C@H](O)C(=O)/C=C\C[C@H](C)OC2=O [(5Z)-7-Oxozeaenol]; conditions: top dose 10 µM; top dose inferred
Method: as §1

[1] = top dose 2.56 µM, screen: GDSC drug entry 154
[2] = top dose 10 µM, screen: GDSC drug entry 1241, top dose inferred
[3] = top dose 2.5 µM, screen: GDSC drug entry 127
[4] = top dose 5 µM, screen: GDSC drug entry 1192

| Cell Line | AUC (Zibotentan) | IC50 (Zibotentan) [µM] | AUC (Cytarabine) | IC50 (Cytarabine) [µM] | AUC (CHIR-99021; [1]) | IC50 (CHIR-99021; [1]) [µM] | AUC (CHIR-99021; [2]) | IC50 (CHIR-99021; [2]) [µM] | AUC (ABT-869) | IC50 (ABT-869) [µM] | AUC (QL-X-138) | IC50 (QL-X-138) [µM] | AUC (CP466722) | IC50 (CP466722) [µM] | AUC (GSK269962A; [3]) | IC50 (GSK269962A; [3]) [µM] | AUC (GSK269962A; [4]) | IC50 (GSK269962A; [4]) [µM] | AUC (ABT-888) | IC50 (ABT-888) [µM] | AUC (CMK) | IC50 (CMK) [µM] | AUC (Thapsigargin) | IC50 (Thapsigargin) [µM] | AUC (KU-55933) | IC50 (KU-55933) [µM] | AUC (MPS-1-IN-1) | IC50 (MPS-1-IN-1) [µM] | AUC ((5Z)-7-Oxozeaenol) | IC50 ((5Z)-7-Oxozeaenol) [µM] |
| --- | --- | --- | --- | --- | --- | --- | --- | --- | --- | --- | --- | --- | --- | --- | --- | --- | --- | --- | --- | --- | --- | --- | --- | --- | --- | --- | --- | --- | --- | --- |
| CPC-N (small cell lung carcinoma, suspension) | 0.985 | > 20 | 0.879 | > 2 | 0.985 | > 2.56 | 0.976 | > 10 | 0.98 | > 1.02 | 0.659 | 1.85 | 0.841 | 12.7 | 0.982 | > 2.5 | 0.823 | 3.32 | 0.985 | > 5 | 0.858 | 3.78 | 0.331 | 0.0104 | 0.965 | > 10 | 0.912 | > 20 | 0.731 | 3.05 |
| CTV-1 (acute myeloid leukaemia, suspension) | 0.99 | > 20 | 0.223 | 0.0242 | 0.953 | > 2.56 | 0.845 | 5.2 | 0.984 | > 1.02 | 0.577 | 0.992 | 0.555 | 1.37 | 0.983 | > 2.5 | 0.956 | > 5 | 0.979 | > 5 | 0.814 | 1.66 | 0.212 | 0.00575 | 0.965 | > 10 | 0.925 | > 20 | 0.683 | 1.8 |
| CW-2 (large intestine, adherent) | 0.987 | > 20 | 0.811 | 1.16 | 0.989 | > 2.56 | 0.968 | > 10 | 0.988 | > 1.02 | 0.943 | > 10.2 | 0.952 | > 16 | 0.982 | > 2.5 | 0.923 | > 5 | 0.988 | > 5 | 0.983 | > 4 | 0.989 | > 0.512 | 0.983 | > 10 | 0.906 | > 20 | 0.827 | 6.73 |
| D-263MG (glioma, adherent) | 0.979 | > 20 | 0.757 | 0.826 | 0.975 | > 2.56 | 0.917 | > 10 | 0.982 | > 1.02 | 0.955 | > 10.2 | 0.981 | > 16 | 0.434 | 0.0993 | 0.591 | 0.585 | 0.98 | > 5 | 0.973 | > 4 | 0.324 | 0.00921 | 0.888 | > 10 | 0.983 | > 20 | 0.663 | 1.97 |
| D-502MG (glioma, adherent) | 0.969 | > 20 | 0.849 | > 2 | 0.977 | > 2.56 | 0.892 | > 10 | 0.975 | > 1.02 | 0.668 | 2.46 | 0.682 | 4.3 | 0.844 | > 2.5 | 0.789 | 3.71 | 0.971 | > 5 | 0.972 | > 4 | 0.657 | 0.111 | 0.954 | > 10 | 0.955 | > 20 | 0.557 | 0.974 |
| DB (B-cell lymphoma, suspension) | 0.957 | > 20 | 0.649 | 0.342 | 0.972 | > 2.56 | 0.934 | > 10 | 0.971 | > 1.02 | 0.745 | 3.58 | 0.794 | 8.43 | 0.906 | > 2.5 | 0.747 | 1.77 | 0.947 | > 5 | 0.983 | > 4 | 0.201 | 0.00364 | 0.89 | > 10 | 0.855 | 19.2 | 0.707 | 2.61 |
| DEL (lymphoid neoplasm, suspension) | 0.992 | > 20 | 0.974 | > 2 | 0.994 | > 2.56 | 0.986 | > 10 | 0.994 | > 1.02 | 0.427 | 0.422 | 0.705 | 3.27 | 0.951 | > 2.5 | 0.95 | > 5 | 0.993 | > 5 | 0.789 | 1.37 | 0.302 | 0.0102 | 0.961 | > 10 | 0.346 | 0.518 | 0.754 | 2.74 |
| DG-75 (Burkitt lymphoma, suspension) | 0.981 | > 20 | 0.762 | 0.722 | 0.982 | > 2.56 | 0.944 | > 10 | 0.987 | > 1.02 | 0.863 | 9.06 | 0.813 | 8.8 | 0.955 | > 2.5 | 0.903 | > 5 | 0.983 | > 5 | 0.938 | > 4 | 0.896 | > 0.512 | 0.832 | 6.53 | 0.943 | > 20 | 0.683 | 2.05 |
